# According to the supplement of paper PMC11417369:
# ± gives the standard deviation of the averaged measurements. Some of the results follow.
# Test system: PfAP2-G AP2 domain (GST-tagged)
# Assay: gcPBM binding intensity (ln(normalized median fluorescence intensity)); higher = stronger DNA binding
# Procedure, shortened: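 GST-tagged P. falciparum DNA-binding domains, expressed in E. coli (about 25 μg on average), were applied for 1 h to an Agilent 4 × 180k array of primer-extended double-stranded 36-bp intergenic genomic probes plus negative controls. The binding buffer was 1× PBS with 1% milk, 0.2 mg/ml BSA, 0.5% salmon testes DNA and 0.03% Triton X-100. Bound protein was detected with Alexa488 anti-GST antibody and scanned at 488 nm. Binding intensity is the highest Masliner-normalised natural-log median intensity across replicate spots of either probe orientation.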
row,Sequence,gcPBM binding intensity (ln)
1,GGAGAAAAAAAAAAAAAACACACGGTACATTCAAAG [CACACA_site1503],10.36 ± 0.035
2,TTTTTTTCGTATATTACACACTATATATAGAAATTA [CACACA_site298],10.1 ± 0.42
3,ATAATATTTTATGGTTGTACTTTTAGTTCTTTTTTT [XGTACX_site5756],11.2 ± 0.77
4,ATTAAATATATTTTGCGTACACAAAAAAATACGTTC [XGTACX_site3862],11.6 ± 0.97
5,TACGTGAAGTTATATACACACATAAATATGTCTGTA [CACACA_site7463],9.96 ± 0.15
6,TTAAAGTATAACTGTACATGCGAGTAAAAGAATGAC [TGCATGCA_site899],11.2 ± 0.67
7,GAAAAAAAACACATTGTGCACTTTTCCTTAAGTATA [GTGCAC_site9475],10.4 ± 0.12
8,TTATTAAAGGAAAAATGTACATATAAATGAATATGT [XGTACX_site23],11.1 ± 0.63
9,AAAAAATGTAAATATAAACAACCAAAGGGGGTATAC [GTGCAC_negctrl_site465],10.5 ± 0.28
10,AAAAAAAAAAAGCACACACACATATGCGTATATATA [CACACA_site954],10.34 ± 0.092
11,AAAATAATAATAAAAAGTACATGTGTATATAATAAA [XGTACX_site754],11.3 ± 0.82
12,TGCATTATTTTATGAAGTACATATGAACAAAAAATT [XGTACX_site2185],11.5 ± 1
13,ATATATTCATTTTTATGTACGTAAATTGTAAATTGG [XGTACX_site8242],11.6 ± 0.92
14,ACCATTTGTAGGTAAACACACATTATTCTTAATATC [CACACA_site5453],9.96 ± 0.13
15,TTTCTCTTATTCCAATCTATAATAAGTATCAATATT [CACACA_negctrl_site179],10.2 ± 0.26
16,AAAGAAGGTAAACACACACACACACCGACAAAAAAA [CACACA_site9255],10.1 ± 0.2
17,AAATTATCCAAAAATTGTACTTAAAACAACATAAAA [XGTACX_site6238],11.1 ± 0.76
18,AATATATATATGATTATATATATATATATATATATA [GTGCAC_negctrl_site290],9.69 ± 0.3
19,AAAATAACACAAATGGGTACATATTATATTAAATAA [XGTACX_site7027],11.3 ± 0.93
20,TTTAATTAAAATATATGTACATATATATATATATAT [XGTACX_site4517],11.4 ± 0.77
21,TATGTTTTTCGGTATGCATGCATATGCTTAATAATA [TGCATGCA_site184],10.2 ± 0.26
22,AATATTAAACAAATGAAAAAAAAATATATATTATAT [CACACA_negctrl_site742],9.79 ± 0.16

row,Sequence,gcPBM binding intensity (ln)
1,AACCAAATTTCACCATGTACATATTGATAAATATAT [XGTACX_site1374],11.2 ± 0.86
2,ATATGATTTGGATGTAGTACATATTTTTTTATGTTT [XGTACX_site1929],11.5 ± 0.8
3,AAATGAACAAGTGGCACACACACATTCTAACTAATT [CACACA_site3203],10.31 ± 0.064
4,GCACCAAAAAAAAGACGTACAGTTATATTAAAATAG [XGTACX_site8926],11.7 ± 1
5,AATGAAAAGAAATAATAAATAAATGATGACCAGCTG [GTGCAC_negctrl_site398],10.6 ± 0.38
6,TGATTATCCTTCAGGAGTACATATAATATAATATAT [XGTACX_site1479],11.4 ± 1
7,TTATAAAGAAAAAATTGCTTTAAAAGAAAGATTACA [CACACA_negctrl_site960],9.66 ± 0.11
8,ATATATATATGAATCACACACAAAAAATATAGAGAT [CACACA_site3913],10.2 ± 0.16
9,TATTATATGAATAATTGTACGAAATTTAAAAGACAA [XGTACX_site7558],10.8 ± 0.51
10,GGGGAGCTATCTCCTGCACACACAATTTTTTTTTTT [CACACA_site8703],10.3 ± 0.25
11,CACAAATATATACATACACACATATATACGCATATA [CACACA_site395],10.2 ± 0.12
12,TAATGTATTATTTAATGTACTTAAAAAATAAATAAA [XGTACX_site3296],11.3 ± 0.96
13,AATGAACAGACGAGCACACACACACCCATATATATA [CACACA_site1018],10.3 ± 0.16
14,ACCTTTAATAAATACACACACATAAAAAAAATATAT [CACACA_site5086],10.3 ± 0.29
15,TAAAAATTAAAGTGTACACATATATATATATATATA [CACACA_site4781],11.6 ± 0.97
16,ATTACCATATTTTGTACACACATCTTTATCTCAATA [CACACA_site3217],11.3 ± 0.71
17,AAACCTATGTATATTATACACACTCCAAACTATTAT [CACACA_site8536],10 ± 0.099
18,TTTTATGTTTATGTGGTGCATGTTTTGAAGAAAATA [GTGCAC_site9616],10.5 ± 0.38
19,TATAAACCGACGAAAACACACATATGTAAATATATA [CACACA_site491],10.01 ± 0.078
20,ACCAATAATATACATACACACATAAATGTTTATATA [CACACA_site4328],9.975 ± 0.078
21,ACATGAATATATACACGTACATATATACATATATAT [XGTACX_site5872],11.3 ± 0.81
22,TGAAAAACTATCAGAGTGCATATATAGCTCGATACA,9.815 ± 0.021

row,Sequence,gcPBM binding intensity (ln)
1,CGGGGGTAGTTTTATGCACACGTTTATTAATGCTTC [CACACA_site5717],10.6 ± 0.35
2,ATATAAAAAAAATTTAGTACATATATATATATATAT [XGTACX_site8635],10.9 ± 0.73
3,AAAAAAATAATTAACACACACATGTATATCTATATA [CACACA_site3139],9.77 ± 0.26
4,TATATATATATATTATGTACTCATTTATTATCTTTT [XGTACX_site8051],11.4 ± 1.1
5,TACAATGAACATGAAACACACAAAAAAAAAAAAAAA [CACACA_site1544],9.82 ± 0.45
6,ACATAGTAAATATTATGTACATAATATATACATTTA [XGTACX_site7500],11.1 ± 0.72
7,AATATACGATTGTCATTCATACATTGTTAACATAGT [CACACA_negctrl_site1151],10.12 ± 0.064
8,ATATACAGAAAAAATTAAAATAAATATGCAAAACAA [CACACA_negctrl_site704],9.83 ± 0.014
9,CTTAAACTTTTAAATACACACATACAGACATACACA [CACACA_site6401],10.4 ± 0.3
10,TAAAAATGATCAAAGGGTACAGTATTAATTAAAAAA [XGTACX_site1079],11.3 ± 0.93
11,TTTACTTTTTTTATATATTATTTATTATATAATATA [CACACA_negctrl_site211],9.76 ± 0.028
12,TTCTTAATTCATACCATCAAAACATTTATTCATATC [CACACA_negctrl_site43],9.89 ± 0.057
13,ATAGGGTTTCTACTTTAACATTTTTGAAATATTATA [GTGCAC_negctrl_site260],9.98 ± 0.13
14,TTTATTTATATAATTACACACATATATACTCAAATG [CACACA_site5543],10.1 ± 0.19
15,ATATGTACTATACGCACACACACTCACATATTTATA [CACACA_site7510],11.2 ± 0.67
16,TATTATAAATAAATAGAAAAAAAAATGATAAATGGA [CACACA_negctrl_site865],9.85 ± 0.028
17,ATAATAAATACACTAGTGCAAAATAATATATGTACT [GTGCAC_site9707],10.38 ± 0.099
18,TATTTAGACATAACAAATAGACTAACAAAAGATTTA [GTGCAC_negctrl_site614],9.87 ± 0.071
19,AAATGTGTTAATGTGCGTACACATATATATAATATT [XGTACX_site2792],11.7 ± 1.1
20,ATCACTAATTTTTTTACACACCACAATTTAATTTTT [CACACA_site1186],10.2 ± 0.18
21,AATATATACACATGCGCACACACAAGTGGGAAATTT [CACACA_site8527],10.4 ± 0.28
22,TTTATATTTCATTTGTTATTTTTCTTGGTTCTATAT [TGCATGCA_negctrl_site23],9.89 ± 0.085

row,Sequence,gcPBM binding intensity (ln)
1,TTTTTTTTTTTTTTTTTTATATTTCATAATTTCATT [XGTACX_negctrl_site579],9.33 ± 0.71
2,TTTTGCCTGAACAATGCATGTTATTTTTATTTTTTT [TGCATGCA_site673],9.73 ± 0.26
3,TCATTTAAGTCATATTGAAATATGCATTATTCAAAA [CACACA_negctrl_site958],9.88 ± 0.2
4,ACCAATTTGACAAACTGTACAAAAAAAATATTAAAA [XGTACX_site1186],11 ± 0.56
5,TATATATTCCTCCATAGTACAATAATAAAGATAAAA [XGTACX_site5785],10.6 ± 0.35
6,TACACAAAAATAAACACACACACATATATATATATA [CACACA_site1000],10.1 ± 0.64
7,CGCGAACATACATACACACACATATATATATCTGTA [CACACA_site4277],10 ± 0.14
8,CTTTCCCTATATTGCTGTACATGTATTCAAAAAACA [XGTACX_site353],11.3 ± 0.83
9,ATTTATATATATGTATGTACGTATGTGTGTATATGT [XGTACX_site7587],11.4 ± 0.88
10,AACACCCAAAAACACACACACATACATACATACATA [CACACA_site4411],10.1 ± 0.16
11,AACATTAATTTCCTATGTACTTAATATATTGTTTTT [XGTACX_site4440],11 ± 0.72
12,TAATTAGTTTTTACTTTTTTTTTTTTTTTTCTATAT [CACACA_negctrl_site1024],9.66 ± 0.085
13,TATATATACTTAGAAACACACAAAAATATTTTATAA [CACACA_site2578],10.01 ± 0.014
14,TATAACTTATTTTTTAGTACATATTATAGTTCATTT [XGTACX_site8649],10.9 ± 0.59
15,TTATGTATATTATAAATTAATACCTTTAAATTAATA [CACACA_negctrl_site67],9.74 ± 0.21
16,ATAATCCTGAAACACACACACACACCCATAAATAAA [CACACA_site481],10.2 ± 0.33
17,TGTGATTATGATAAAAGTACAGAAATAAATATACTA [XGTACX_site38],11.4 ± 1
18,ATTCCTCATTAATATTCTTATTTTTTAATTCACATT [XGTACX_negctrl_site329],10 ± 0.085
19,TAAAAGGAGACATATACACACATATATATATATATA [CACACA_site5539],10 ± 0.3
20,TTTATTTAAAATAAGTGTACTAGAAAAATTAAGCAG [XGTACX_site4982],11.5 ± 0.95
21,ATAAAAAGCTAAAAAGTGCAAAAAGTAAATATTTAA,10.02 ± 0.049
22,TTTTATAAAGAACACAGACACACAAAGAAAGAACCA [CACACA_site4174],10.6 ± 0.48
